Test results taken from PubChem BioAssay AID2675 (National Center for Advancing Translational Sciences (NCATS), 2010).
Out of some 280,000 compounds screened, about 100 (0.036%) were called active. The shares of active, inactive and inconclusive entries below differ from those in the screen. Calls follow the shape of the dose curve; as a rule, active = well fitted inhibition curve with a large enough effect in the signal ratio, with a control signal flat (not every such curve was filed as active); inconclusive = small, poorly fitted or top-dose-only effect, or effect the other way, or a change in a side signal; inactive = no such curve, though single readings can be large or run the other way; the % refers to the signal ratio. Potencies beside an inconclusive call are fits to weak or partial responses and may not hold up. A note “side channel” means that the fit belongs to a control or component signal, not to the main read-out.

The compounds below were run against Muscleblind-like protein 1 (Homo sapiens) (UniProt Q9NR56) (assay: qHTS Assay for Inhibitors of MBNL1-poly(CUG) RNA binding). Details: TR-FRET MBNL1-His/biotin-(CUG)12 binding, 665/545 ratio; series mostly up to 57.5 µM.
Method in brief: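 Compounds (final 92 nM to 58 uM) are added to His-tagged MBNL1 and biotin-(CUG)12, then terbium anti-His antibody and streptavidin-XL665 (5 nM final). After 60 min at room temperature, the 665/545 nm ratio is read.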
Potency is read from the fitted curve at half-maximal effect; tags tell the direction and shape of the fitted curve or compound fluorescence and quenching.

Sequence of UniProt Q9NR56 (Q9NR56 whole entry, looked up): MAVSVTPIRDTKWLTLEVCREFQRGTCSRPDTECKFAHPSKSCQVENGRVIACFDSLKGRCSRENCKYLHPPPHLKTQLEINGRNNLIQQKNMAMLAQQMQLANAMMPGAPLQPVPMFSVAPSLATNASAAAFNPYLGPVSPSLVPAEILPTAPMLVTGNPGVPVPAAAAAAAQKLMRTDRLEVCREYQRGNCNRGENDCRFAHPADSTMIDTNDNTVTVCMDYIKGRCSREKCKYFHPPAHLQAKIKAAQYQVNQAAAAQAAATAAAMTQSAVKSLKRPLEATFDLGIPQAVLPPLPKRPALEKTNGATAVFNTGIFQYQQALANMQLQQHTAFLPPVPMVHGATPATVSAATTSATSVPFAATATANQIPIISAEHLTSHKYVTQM

Row | SMILES | Potency
1 | CCc1nnc(SCC(=O)N2CCCc3ccccc32)nc1CC | inactive
2 | CN1CCN(/C(=N\O)c2nonc2N)CC1 | inactive
3 | COc1ccccc1OCCCCCc1c(C)n[nH]c1C | inactive
4 | CCC(=O)Oc1ccc(C/C(=N\O)c2ccc(O)cc2O)o1 | inactive
5 | CC1=CC2(O)OCCN(CCO)C2=CC1=O (stereo not given) | inconclusive: 5.01 µM [quencher, side channel, full curve, poor fit]
6 | CC(c1nc2ccccc2o1)N1C(=O)c2ccccc2C1=O (stereo not given) | inactive
7 | CCCC(=O)N1CCN(Cc2nc3cc([N+](=O)[O-])ccc3n2C)CC1 | inconclusive: 14.1 µM [quencher, side channel, partial curve]
8 | c1ccc(N2CCN(c3cnc4ccccc4n3)CC2)cc1 | inconclusive: 17.8 µM [quencher, side channel, single point]
9 | O=C(CSc1nnc(-c2ccncc2)n1Cc1ccco1)Nc1ccccc1Cl | inactive
10 | CC(=O)c1cccc(NC(=O)N2CCCC2C(=O)NCc2ccc(C)cc2)c1 (stereo not given) | inconclusive: 39.8 µM [quencher, side channel, single point]
11 | O=C(CN1CCCC1)Nc1ccc([N+](=O)[O-])cc1 | inconclusive: 17.8 µM [quencher, side channel, partial curve]
12 | Cc1ccc(N2C(=O)[C@@H]3[C@H](C2=O)[C@H]2C=C(C(=O)c4ccccc4)C=CN2[C@@H]3C(=O)c2ccc(Cl)cc2)cc1 | inactive
13 | CCOc1cc(/C=N/n2cnnc2)ccc1OC(=O)c1cccc([N+](=O)[O-])c1 | inconclusive: 14.1 µM [quencher, side channel, partial curve]
14 | O=c1c2[nH]c3ccccc3c2ncn1CCN1CCNCC1 | inactive
15 | O=C(COc1cccnc1[N+](=O)[O-])c1c[nH]c2ccccc12 | inconclusive: 31.6 µM [quencher, side channel, partial curve]
16 | Nc1ccc2c(c1)OCCOCCOCCOCCOCCO2 | inconclusive: 11.2 µM [quencher, side channel, partial curve]
17 | COc1ccc(/C=C2\SC(=S)N(CCC(=O)NC3C=CS(=O)(=O)C3)C2=O)cc1 (stereo not given) | inconclusive: 8.91 µM [quencher, side channel, partial curve]
18 | COCCNC(=O)c1ccc2c3n(nc2c1)-c1ccccc1CO3 | inconclusive: 28.2 µM [quencher, side channel, partial curve]
19 | COc1cc2c(cc1OC)C(COc1ccc([N+](=O)[O-])cc1)N(C(C)=O)CC2 (stereo not given) | inconclusive: 44.7 µM [quencher, side channel, partial curve, poor fit]
20 | COc1ccc(C(=O)NC(=S)N(C)C2CCCCC2)cc1Br | inactive
21 | CC(C)c1ccc(/C=C/C(=O)NC(=S)NN2CCOCC2)cc1 | inactive
22 | CCCC/C(O)=C/c1nc2ccccc2[nH]c1=O | inconclusive: 14.1 µM [quencher, side channel, partial curve]

Row | SMILES | Potency
23 | O=C(Cc1ccc(F)cc1)Nc1cccc(-c2ccc3nncn3n2)c1 | inconclusive: 28.2 µM [quencher, side channel, single point]
24 | COc1ccc(CNC(=O)c2cnc3cc(C)ccn3c2=O)cc1 | inconclusive: 28.2 µM [quencher, side channel, partial curve]
25 | CC(NC(=O)c1cc([N+](=O)[O-])cc([N+](=O)[O-])c1)C1CC2CCC1C2 (stereo not given) | inconclusive: 10 µM [quencher, side channel, partial curve]
26 | CCOc1ccc(-c2[nH]nc3c2C(c2cccnc2)C(C#N)=C(N)O3)cc1 (stereo not given) | inconclusive: 25.1 µM [quencher, single point]
27 | O=[N+]([O-])c1ccc(N2CCN(Cc3ccc4c(c3)OCO4)CC2)nc1 | inconclusive: 14.1 µM [quencher, partial curve]
28 | C/C(=N\NC(=O)c1ccncc1)c1cc2ccccc2o1 | inconclusive: 10 µM [quencher, side channel, partial curve]
29 | CCCc1nc(SCC(=O)Nc2nnc(CC)s2)c2c(=O)n(C)c(=O)n(C)c2n1 | inactive
30 | NS(=O)(=O)c1ccc(NC(=O)c2ccc(CNS(=O)(=O)c3cc(C(F)(F)F)ccc3Cl)cc2)cc1 | inactive
31 | O=C(O)CSc1sc(=S)sc1SCC(=O)O | inconclusive: 14.1 µM [quencher, side channel, partial curve]
32 | O=C(O)/C=C/C(=O)NNC(=O)c1ccc(Cl)cc1Cl | inactive
33 | OC(CNC1Cc2ccccc2C1)COc1ccc(Cl)cc1 (stereo not given) | inactive
34 | O=c1ccc(-c2ccc(S(=O)(=O)Nc3ccccc3)o2)n[nH]1 | inconclusive: 25.1 µM [quencher, side channel, single point]
35 | Cc1ccc(C2NC(=O)NC3=C2CCc2ccccc23)cc1 (stereo not given) | inconclusive: 22.4 µM [quencher, side channel, partial curve]
36 | Cc1cc[n+](CC(=O)c2cccc([N+](=O)[O-])c2)c2ccccc12 | inconclusive: 14.1 µM [quencher, partial curve]
37 | COCCSc1nnc(NC(=O)Cc2cccs2)s1 | inconclusive: 63.1 µM [inhibitor, single point]
38 | COc1ccc2cc(/C=C3\SC(=S)NC3=O)c(N3CCOCC3)nc2c1 | inconclusive: 35.5 µM [quencher, side channel, partial curve]
39 | O=C(CN1CCN(c2ccc([N+](=O)[O-])cc2)CC1)Nc1nccs1 | inconclusive: 2.24 µM [quencher, side channel, full curve, poor fit]
40 | O=C(N/N=C/c1ccc(Br)cc1)c1ccc(F)cc1 | inactive
41 | CCOC(=O)c1[nH]c2cc3c(cc2c1NC(=O)CN1CCC2(CC1)OCCO2)OCO3 | inconclusive: 22.4 µM [quencher, side channel, single point]
42 | CC[n+]1ccc(C[n+]2ccccc2)c2ccccc21 | inconclusive: 15.8 µM [quencher, side channel, partial curve]
43 | O=c1cc(-c2ccc(O)cc2)oc2cc(O)c(C3OC(CO)C(O)C(O)C3O)c(O)c12 (stereo not given) | inconclusive: 100 µM [inhibitor, partial curve, poor fit]
44 | Cc1nc2c(n1C1CCCCC1)C(=O)c1ccccc1C2=O | inconclusive: 1.78 µM [quencher, side channel, full curve]

Row | SMILES | Potency
45 | CN1CCN(c2nc3c(c(=O)[nH]c(=O)n3C)n2Cc2ccc([N+](=O)[O-])cc2)CC1 | inconclusive: 39.8 µM [quencher, side channel, single point]
46 | CN1C(=O)c2ccc(N(C)C)cc2C1=O | inconclusive: 39.8 µM [quencher, single point]
47 | O=[N+]([O-])c1cccc(S(=O)(=O)NCC2CCCO2)c1 (stereo not given) | inconclusive: 25.1 µM [quencher, side channel, single point]
48 | NS(=O)(=O)c1cccc(NC(=O)c2cc(=O)c3ccccc3o2)c1 | inconclusive: 12.6 µM [quencher, partial curve]
49 | CCOc1ccc(N2C(=O)c3ccc(C(=O)OCC(=O)N(CC)C4CCS(=O)(=O)C4)cc3C2=O)cc1 (stereo not given) | inconclusive: 4.47 µM [quencher, side channel, full curve]
50 | COc1ccc(C2=NN(CN3C(=O)C(=O)c4ccccc43)C(c3ccc(OC)cc3)C2)cc1 (stereo not given) | inconclusive: 25.1 µM [quencher, side channel, partial curve]
51 | NC(=O)CC[C@@H]1NC(=O)[C@H](CO)NC(=O)c2cc([N+](=O)[O-])cc(I)c2NCC[C@@H](C(N)=O)NC(=O)[C@H](Cc2ccc(O)cc2)NC1=O | inconclusive: 17.8 µM [quencher, side channel, partial curve]
52 | COCCCN1C(=O)c2ccc(C(=O)OCC(=O)NCCc3ccccc3)cc2C1=O | inconclusive: 6.31 µM [quencher, side channel, partial curve]
53 | COc1ccc(/C=C(/NC(=O)c2ccc(OC)c(OC)c2)C(=O)NCCCn2ccnc2)cc1 | inactive
54 | O=C(CCS(=O)(=O)c1cccc2nonc12)N1CCCc2ccccc21 | inconclusive: 11.2 µM [quencher, partial curve]
55 | CCc1nc(N2CCCCC2C)c2oc3ccccc3c2n1 (stereo not given) | inactive
56 | COc1ccccc1C(c1c(N)n(C)c(=O)n(C)c1=O)C(C)[N+](=O)[O-] (stereo not given) | inactive
57 | N#CC1=C(SCC(=O)c2ccccc2)NC2=C(C(=O)CCC2)C1c1ccco1 (stereo not given) | inconclusive: 10 µM [quencher, side channel, partial curve]
58 | CC1([N+](=O)[O-])COC2(OC1)C(=O)Nc1ccccc12 (stereo not given) | inactive
59 | O=S(=O)(c1cc(Br)c(Cl)s1)N1CCCC1 | inactive
60 | CCOCCCNc1ccc(N2C(=O)C3CCCCC3C2=O)cc1[N+](=O)[O-] (stereo not given) | inconclusive: 2.82 µM [quencher, side channel, full curve]
61 | Cc1ccc(C)c(OCC(=O)Nc2cccc(C(=O)O)c2)c1C | inactive
62 | Cc1scc(C(=O)O)c1-c1c(C(=O)O)csc1C | inconclusive: 6.31 µM [fluorescent, side channel, partial curve]
63 | Cc1ccc(NC(=S)N=Nc2c(O)[nH]c3ccccc23)cc1 | inactive
64 | COc1ccccc1NC(=O)c1c(C)nn(-c2ccccc2)c1Cl | inactive
65 | O=C(NNC(=O)c1cccnc1)Nc1ccc([N+](=O)[O-])cc1 | inconclusive: 20 µM [quencher, side channel, partial curve]
